The whole screen tested about 150,000 compounds, of which about 6,500 (4.3%) were called active. Inconclusive means that the source gave no clear call. Such entries were picked first, then a sample of the others. Calls come from the whole dose curve; as a rule, active = well fitted inhibition curve with a large enough effect (not every such curve was filed as active); inconclusive = small, poorly fitted or top-dose-only effect, or another doubt; inactive = no such curve, though single readings can be large or run the other way. No potency is given beside an inconclusive call; the fits are too rough.
biological target: 15-hydroxyprostaglandin dehydrogenase [NAD(+)] (Homo sapiens) (UniProt P15428); assay: qHTS Assay for Inhibitors of HPGD (15-Hydroxyprostaglandin Dehydrogenase); settings: purified HPGD, NADH fluorescence kinetic, PGE2 substrate; activity change, negative = inhibition: stronger effect = lower value
Outline: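 20 nM HPGD preincubated 15 min at room temperature with compound in 50 mM Tris-HCl pH 8, 0.01% Tween 20. Started with 1 mM NAD+ and 30 uM prostaglandin E2; NADH fluorescence (360/450 nm) read 5 times over 30-s intervals, last minus first.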
% is set by controls: 0 for no effect and ±100 for the full control effect; potency is the fitted concentration of half-maximal effect; tags give direction and shape of the fitted curve.

Sequence of UniProt P15428 (P15428 whole entry, looked up): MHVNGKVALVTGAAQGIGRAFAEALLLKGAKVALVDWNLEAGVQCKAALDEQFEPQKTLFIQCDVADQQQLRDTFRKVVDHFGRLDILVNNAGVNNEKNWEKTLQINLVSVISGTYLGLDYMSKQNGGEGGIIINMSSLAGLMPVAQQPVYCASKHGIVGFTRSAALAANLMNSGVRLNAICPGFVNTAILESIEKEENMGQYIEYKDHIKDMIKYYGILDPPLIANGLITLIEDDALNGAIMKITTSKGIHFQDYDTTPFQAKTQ

SMILES	Potency	activity change, negative = inhibition
Cc1cc(C)cc(OCC(=O)NC2CCCc3ccccc32)c1 (stereo not given)	inconclusive [inhibitor, partial curve]	
O=C1c2ccccc2NC2CCCCCN12 (stereo not given)	inconclusive [inhibitor, partial curve]	
COc1ccc(NS(=O)(=O)c2cc(NC(=O)c3ccc(F)cc3)ccc2OC)cc1	inconclusive [inhibitor, partial curve]	
O=C(O)c1cc(-c2ccc(-c3ccc(-c4cc(C(=O)O)c5cc(Cl)ccc5n4)cc3)cc2)nc2ccc(Cl)cc12	inconclusive [inhibitor, partial curve]	
CC(C)NC(=O)c1onc(CSc2ccccc2F)c1C(=O)O		inactive: -4.12%
Oc1ccccc1/C=N/n1cnn(Cc2ccccc2Cl)c1=S	inconclusive [inhibitor, single point]	
O=C(O)COc1ccccc1/C=C1\SC(=S)N(/N=C/c2ccccc2O)C1=O	active: 8.91 µM	
CCC(C)c1ccc(NC(=O)C2CCCN(c3ncccn3)C2)cc1 (stereo not given)	inconclusive [inhibitor, partial curve, poor fit]	
CCOC(=O)c1c(-c2ccc(C)o2)csc1NC(=O)COC(=O)c1cccs1	active: 22.4 µM	
CCC(=O)N1CCc2cc(S(=O)(=O)NC(Cc3ccccc3)C(=O)Nc3nccs3)ccc21 (stereo not given)		inactive: -8.71%
CC(C)NC(=O)COC(=O)c1cc(Br)ccc1Cl	active: 22.4 µM	
CCC1CC2(C)NC(=O)c3c(sc4c3CC(C)(C)OC4)N2C1=O (stereo not given)	inconclusive [inhibitor, partial curve]	
CCNC(=O)c1sc(=S)n(CC)c1N	active: 17.8 µM	
Nc1ncnc2oc(-c3ccco3)c(-c3ccco3)c12	inconclusive [inhibitor, partial curve]	
Nc1ccccc1N=Nc1c(S(=O)(=O)O)cc2cc(S(=O)(=O)O)cc(O)c2c1O		inactive: -5.78%
O=c1c2cn[nH]c2[nH]c(=S)n1-c1ccccc1	active: 28.2 µM	
COc1ccc2c(c1)C(=NN)c1cc(OC)ccc1-2	inconclusive [inhibitor, full curve, poor fit]	
C=CCOC(=O)C1=C(C)NC(SCC(=O)N(CC)CC)=C(C#N)C1c1ccco1 (stereo not given)	active: 17.8 µM	
COc1cc(C(=O)Nc2nc3ccc(C)cc3s2)ccc1OCc1c(C)noc1C	inconclusive [inhibitor, partial curve]	
c1ccc2c(c1)CCN(c1nc3cc4c(cc3s1)OCO4)C2	active: 31.6 µM	
